About 14,000 (4.5%) of roughly 310,000 compounds showed an effect of 50% or more. The effect is printed as a negative number. The list shows a part of the results.
target: human ether-à-go-go-related gene (hERG) potassium channel (human, UniProt Q12809); test: primary screen, population patch clamp on CHO cells stably expressing hERG
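Also: peak tail current of the secondary pulse compared with the same well before compound.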

Sequence of human ether-à-go-go-related gene (hERG) potassium channel (Q12809 whole entry, looked up): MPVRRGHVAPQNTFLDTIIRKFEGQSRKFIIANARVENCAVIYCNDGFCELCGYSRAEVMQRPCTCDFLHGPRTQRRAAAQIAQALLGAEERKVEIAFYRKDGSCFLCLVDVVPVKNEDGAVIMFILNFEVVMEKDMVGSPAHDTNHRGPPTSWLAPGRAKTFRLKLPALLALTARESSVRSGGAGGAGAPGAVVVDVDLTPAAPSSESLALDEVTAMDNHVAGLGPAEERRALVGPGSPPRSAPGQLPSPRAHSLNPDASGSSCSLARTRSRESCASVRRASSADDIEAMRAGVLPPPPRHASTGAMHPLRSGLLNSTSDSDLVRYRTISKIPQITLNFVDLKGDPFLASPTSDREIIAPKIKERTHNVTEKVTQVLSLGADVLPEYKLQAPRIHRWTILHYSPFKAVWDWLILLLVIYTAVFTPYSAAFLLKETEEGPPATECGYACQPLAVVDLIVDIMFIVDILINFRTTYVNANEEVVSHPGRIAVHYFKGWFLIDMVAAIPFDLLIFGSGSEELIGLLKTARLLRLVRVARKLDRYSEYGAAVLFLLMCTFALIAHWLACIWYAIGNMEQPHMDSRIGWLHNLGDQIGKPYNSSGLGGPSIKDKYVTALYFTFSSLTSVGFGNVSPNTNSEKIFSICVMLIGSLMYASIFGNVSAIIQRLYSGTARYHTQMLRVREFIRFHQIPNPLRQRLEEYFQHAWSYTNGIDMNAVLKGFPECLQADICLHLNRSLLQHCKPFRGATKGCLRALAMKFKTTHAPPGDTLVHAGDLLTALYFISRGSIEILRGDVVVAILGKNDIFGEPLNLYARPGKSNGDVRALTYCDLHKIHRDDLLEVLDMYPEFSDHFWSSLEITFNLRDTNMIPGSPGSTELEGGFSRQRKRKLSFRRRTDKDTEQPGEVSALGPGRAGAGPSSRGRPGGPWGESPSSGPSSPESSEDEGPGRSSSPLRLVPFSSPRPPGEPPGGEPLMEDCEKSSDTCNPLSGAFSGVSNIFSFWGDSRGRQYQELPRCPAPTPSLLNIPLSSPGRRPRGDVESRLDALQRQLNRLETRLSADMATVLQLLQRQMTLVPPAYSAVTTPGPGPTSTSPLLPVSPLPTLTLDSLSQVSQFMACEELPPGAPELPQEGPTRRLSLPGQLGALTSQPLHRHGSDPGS

Compound	hERG current change (%, negative = inhibition) at 10uM [%]
COc1ccccc1N1CCN(S(=O)(=O)/C=C/c2ccccc2)CC1	-11.3
O=C1CC(NC(=O)C(F)(F)F)=NN1c1ccccc1	7.57
Cc1ccc(C)n1NC(=O)c1ccc([N+](=O)[O-])cc1	-10.3
O=C(N/N=C/c1cc(Cl)ccc1O)c1ccncc1	-13.6
COc1cc(C)c(CN2CCN(CC(=O)Nc3ccccc3C(=O)NC3CC3)CC2)cc1OC	-80.1
Cc1ccc(S(=O)(=O)N(CC(=O)N/N=C/c2cccc(C)c2)c2cccc3cccnc23)cc1	12.6
CCOc1cc(/C=C(/C#N)c2ccc(F)cc2)ccc1OCc1ccc(C(=O)O)o1	6.19
Cc1cccc(NCc2nc3ccccc3n2C)c1	-6.06
N#Cc1nc(-c2ccc(Cl)cc2)oc1NCCc1ccccn1	-3.05
Cc1ccc(-c2nc3c(c(=O)[nH]c(=O)n3Cc3ccccc3)n2C)s1	2.88
O=[N+]([O-])c1ccccc1/C=C\C=N\N1CCN(c2ccccc2)CC1	-9.57
COc1ccc(CNC(=O)CN(Cc2ccccc2)S(=O)(=O)c2ccc(Cl)cc2)cc1	-61.7
CCOc1ccc(-c2cn(CCC#N)cn2)cc1	13.8
COc1cc(C(=O)N/N=C(\C)c2ccc3c(c2)OCO3)cc(OC)c1OC	2.14
CC(=O)Nc1ccc(S(=O)(=O)N(CC(=O)Nc2cc(C)on2)Cc2ccc(F)cc2)cc1	-11.5
Cc1cc(C(=O)COC(=O)c2n[nH]c3ccccc23)c(C)n1C	1.08
CCOC(=O)c1c(NC(=O)c2ccc(Br)o2)sc2c1CCCC2	-9.78
CC1CCN(C(=S)NC(=O)c2cccs2)CC1	9.34
O=C1N=c2ccccc2=C/C1=C\c1c(O)[nH]c(=S)[nH]c1=O	13.1
CN(C)/C=C1\C(=O)Oc2ccccc2C1=O	18.3
O=C(Cc1ccccc1)NCCCN1CCN(CCCNC(=O)Cc2ccccc2)CC1	3.92
CCOC(=O)C1(Cc2cccc(Cl)c2)CCCN(C(=O)c2ccnn2C)C1 (centres unmarked)	-11.9
CN(C)CCP(=O)(c1ccccc1)c1ccccc1	13.4

Compound	hERG current change (%, negative = inhibition) at 10uM [%]
O=C(N=C1SC2CS(=O)(=O)CC2N1c1ccc(F)cc1)C1CC1 (centres unmarked)	11.5
CCCCN(CCCC)S(=O)(=O)c1ccc(NC(=O)CN2CCOCC2)cc1	-53.6
O=C(COc1ccc(Br)cc1CO)N1CCCc2ccccc21	3.43
CN(CC(=O)OCC(=O)NCC(F)(F)F)S(=O)(=O)c1ccc(Cl)cc1	-5.32
N#CCSc1nnc(-c2sc3ccccc3c2Cl)o1	-0.209
Cc1ccc2c(c1)c1c(n2CC(O)Cn2nc(C)c(Br)c2C)CCCC1 (centres unmarked)	9.72
COc1ccc(OC)c(NC(=O)CCc2nnc3ccc(NCc4ccco4)nn23)c1	-15.2
CC1=CCC2C(=O)N(c3nc4ccccc4n3C)C(=O)C2C1 (centres unmarked)	-4.38
CC1(c2cccc(Br)c2)NC(=O)N(CC(=O)Nc2ccc3c(c2)OCO3)C1=O (centres unmarked)	-12.5
COc1ccccc1CNC(=O)c1ccc(OCc2c(C)noc2C)c(OC)c1	-7.82
NS(=O)(=O)c1cc(Cl)c(NC(=O)COC(=O)c2ccccn2)c(Cl)c1	5.59
O=C(CSc1nnc(NC(=O)C2CC(=O)N(c3ccccc3)C2)s1)NCC1CCCO1 (centres unmarked)	17.5
Cc1cc(C)c2c(n1)nn1c(N3CCN(c4ccccc4)CC3)cc(C)nc21	4.66
COc1ccccc1NC(=O)N1CCCC1C(=O)NCc1ccccc1Cl (centres unmarked)	7.24
CC(=O)N(c1ccccc1)c1nc(/C=C/C(=O)Nc2c(C)cc(C)cc2C)cs1	2.03
CN(C)CCOc1ccc2ccccc2c1.O=C(O)C(=O)O	-14.3
CC(/C=N/Nc1nnc(C)c(=O)[nH]1)=C\c1ccccc1	-10.5
COc1ccc(NC(=O)c2cc3c(=O)n4ccccc4nc3n2C)c(OC)c1	2.99
CC(C)(C)c1cccc(Cn2nnc3ccccc32)c1O	17.2
O=C(NCCO)Nc1ccc(Cl)cc1	27.7
COc1ccc(C(=O)Nc2ccnn2C2CCN(Cc3cn(C)nc3C)CC2)cc1	17.1
Cc1cccc2cc(COC(=O)c3cccc([N+](=O)[O-])c3)c(=O)[nH]c12	21
Cc1onc(-c2ccccc2Cl)c1C(=O)Nc1cc(=O)n(C)c(=O)n1C	6.1

Compound	hERG current change (%, negative = inhibition) at 10uM [%]
COC(=O)c1ccccc1NC(NC(=O)c1ccco1)C(=O)c1ccc(C)cc1 (centres unmarked)	8.65
CCCOc1ccc(N2C(=O)CC(N3CCN(S(=O)(=O)c4ccccc4)CC3)C2=O)cc1 (centres unmarked)	-20.2
O=C(NCC1CC1)Nc1ccccc1	16.3
Cc1cc(Cl)c(S(=O)(=O)NC2CCCC2)cc1OCC(=O)NC1CCCCC1	-7.18
Cc1cc2nc(-c3cccnc3SCC(=O)NCc3ccco3)[nH]c2cc1C	-5.15
CSc1ccccc1OCc1cc(C(=O)N(C)Cc2ccc3nsnc3c2)no1	-6.26
Cc1nc2ccccc2c(=O)n1NCc1cccs1	3.57
CCc1ccccc1NC(=O)CN(C)Cc1nc(N)nc(Nc2ccccc2C)n1	-9.54
CCn1c(C)cc(/C=C2\NC(=O)N(CC(=O)Nc3cccc(C)c3)C2=O)c1C	-2.28
COc1ccc(C(=O)Nc2cccc(-c3nc4ncccc4o3)c2C)cc1OC	9.5
Cc1ccc(NC(=S)NCc2ccccc2Cl)c(C)c1	2.81
CCOC(=O)C1C(c2cccs2)NC(=O)N(C)C1(O)C(F)(F)F (centres unmarked)	6.86
COc1cc(CNC(=O)CCCC/C=C/C(C)C)ccc1O	-1.51
COc1ccccc1NC(=O)C(C)OC(=O)CCC1CCCCC1 (centres unmarked)	-1.56
CCOc1ccccc1-n1nnnc1SCC(=O)Nc1cc2oc3ccccc3c2cc1OC	8.28
O=C1c2ccccc2C(Nc2ccc3c(c2)OCCO3)N1Cc1ccco1 (centres unmarked)	-9.55
O=C(c1cn(-c2ccccc2)nc1-c1cc2ccccc2oc1=O)N1CCOCC1	-49.9
COc1cc(OC)cc(C(=O)NCCc2ccc(OC)c(OC)c2)c1	4.31
CC(=O)NS(=O)(=O)c1ccc(NC(=O)c2ccccn2)cc1	18.7
Cc1ccc(NC(=S)NCC23C=CC(O2)C2C(=O)N(c4ccc(C)cc4)C(=O)C23)cc1 (centres unmarked)	-22
CC1CCCCC1NC(=O)CN1CCC(NC(=O)c2ccc([N+](=O)[O-])cc2)CC1 (centres unmarked)	2.55
O=C(Cn1cnc2c(cnn2-c2ccc(Cl)cc2)c1=O)NC1CCCCC1	9
O=C(COC(=O)Cn1cnc2ccccc2c1=O)Nc1cc(Cl)ccc1[N+](=O)[O-]	-5.25

Compound	hERG current change (%, negative = inhibition) at 10uM [%]
COc1ccc(N(C)C(=O)C2CCCN2S(=O)(=O)c2cccc3nsnc23)cc1 (centres unmarked)	-10.5
N#C/C(=C\c1ccccn1)c1ccccn1	12.1
CCC12CN(C(=O)c3ccco3)CC(CC)(CN(C(=O)c3ccco3)C1)C2=O	13.6
COc1ccc(Cl)cc1S(=O)(=O)N1CCN(Cc2ccc3c(c2)OCO3)CC1	-16
N#Cc1ccccc1OCC(=O)OCC(=O)NC1CC1	11.6
CC(C)c1ccc(OCC(=O)NC2=NCCS2)cc1	1.4
O=C(COc1ccccc1[N+](=O)[O-])Nc1cc(Cl)ccc1C(=O)O	5.94
O=C(COC(=O)c1cccnc1Cl)Nc1ccc2c(c1)OCO2	2.28
CCOc1ccccc1NC(=O)C(Sc1ccccc1)c1ccccc1 (centres unmarked)	9.32
CCCN(CC1CC1)C(=O)COC(=O)c1ccc2c(c1)C(=O)N(c1ccc(OCC)cc1)C2=O	-44.8
CCCCNC(=O)Nc1ccc2c(c1)N(C)C(=O)c1ccccc1S2	19.7
COc1ccc(S(=O)(=O)c2cnc3ccccc3n2)cc1	11.7
CCc1ccccc1NC(=S)NN	24.6
O=C(CC1SC(=O)N(Cc2ccc(Cl)cc2)C1=O)Nc1nccs1 (centres unmarked)	-4.51
COCCC(=O)N1CCC(Oc2ccc(C(=O)N3CCCCC3COC)cc2)CC1 (centres unmarked)	17.2
Cc1cc(=O)[nH]c(SCC(=O)N2CCN(S(=O)(=O)c3ccccc3)C2)n1	2.92
O=C(/C=C/c1ccc(F)cc1)Nc1nc2ccccc2[nH]1	-18.7
CCOCCCNC(=O)c1ccc(-n2c(=S)[nH]c3ccccc3c2=O)cc1	10.8
CCN(CC)S(=O)(=O)c1ccc(NC(=O)CSc2cccc[n+]2[O-])cc1	-10.7
CC(=O)N1c2ccc(F)c(F)c2C[C@H]1C	16.2

From article PMC4336329 (PLoS ONE, 2015)
